Values marked as one replicate rest on one cluster of the flow cell; about a third of the high ones do not repeat.
These sequences were tested on ATP (assay: switch fluorescence ratio, 500 uM ATP over buffer (Cy3 cluster intensity, sum of 5 cycles each) (fold (ratio)); higher = stronger signal-on switching upon ATP binding; sequences stand for … in TCGTCGGCAGCGTCAGATGTGTATAAGAGACAGTTTTTTTTTTTTTTTTTTTTTTTTT…TC). Conditions: aptamer strand: ATP DNA aptamer (quencher-CACCTGGGGGAGTATTGCGGAGGAAGG + anchor), 100 nM annealed; ATP concentration: 500 uM; one replicate.
Outline: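 Imaging in selection buffer was followed by imaging after 15 min with 500 uM ATP at 22 °C, for Cy3-labelled switching-strand clusters annealed to 100 nM quencher-labelled ATP aptamer on a modified Illumina MiSeq flow-cell. Five of these buffer/ATP cycles ran, separated by NaOH stripping and re-annealing. The fluorescence ratio per cluster is summed target-cycle over summed buffer-cycle Cy3 intensity, averaged per switch-domain sequence; clusters outside 100-1000 RFU were removed.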
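Further: ATP exposure 15 min at 22 °C before imaging.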

Row | Sequence | switch fluorescence ratio
1 | TACAAGAGCT | 0.995
2 | TACAAGCAGA | 1.05
3 | TACAAGCCGT | 1.1
4 | TACAAGGATT | 0.994
5 | TACAATACGA | 2.28
6 | TACAATTTCA | 1.04
7 | TACACATACA | 1.34
8 | TACACCCGCA | 1.21
9 | TACACCTAG | 1.02
10 | TACACCTATC | 1.05
11 | TACACTCGGA | 1.02
12 | TACAGATATG | 1
13 | TACAGGGGTG | 1.1
14 | TACAGGTCCT | 1.06
15 | TACAGTAGGC | 0.997
16 | TACAGTCCGG | 1.02
17 | TACAGTTT | 1.01
18 | TACATACGGT | 1.45
19 | TACATCAATA | 1.04
20 | TACATCATCT | 1.02
21 | TACATCCAAT | 1.02
22 | TACATCTAA | 1.01
23 | TACATGCCTG | 0.958
24 | TACATGGCAA | 0.978
25 | TACATGGG | 0.943

Row | Sequence | switch fluorescence ratio
26 | TACATGTAGA | 1.05
27 | TACATTCATT | 0.969
28 | TACATTGCGT | 0.973
29 | TACCAAATAT | 1.04
30 | TACCAACCGC | 1.27
31 | TACCAAGTTA | 0.969
32 | TACCACAGGA | 1.09
33 | TACCACGCGC | 1.1
34 | TACCAGACGT | 1.35
35 | TACCATAGCT | 1.11
36 | TACCATTATC | 1.01
37 | TACCCAGCC | 1.14
38 | TACCCATCTT | 2.06
39 | TACCCATGAA | 1.02
40 | TACCCGCCGT | 1.12
41 | TACCCGTCAA | 3.32
42 | TACCCTCGC | 1.31
43 | TACCCTTGAC | 1.07
44 | TACCGAGCGG | 1.02
45 | TACCGAGTTA | 0.984
46 | TACCGATCTA | 1.05
47 | TACCGGCCCG | 1.09
48 | TACCGGTGAA | 1.02
49 | TACCGTCTCG | 1
50 | TACCTAACG | 1.31

Row | Sequence | switch fluorescence ratio
51 | TACCTATTGA | 1.03
52 | TACCTCGCGG | 1.03
53 | TACCTCGTG | 0.986
54 | TACCTGCTTA | 1.02
55 | TACCTGGGTG | 1.96
56 | TACCTTCAAG | 1.04
57 | TACCTTTTTA | 1.05
58 | TACGAAGCTT | 1.58
59 | TACGACACAA | 2.42
60 | TACGACCGAT | 1.22
61 | TACGACCTC | 1.21
62 | TACGACGGGA | 1.44
63 | TACGAGATCT | 0.959
64 | TACGAGGAAA | 1.03
65 | TACGAGTTCA | 1
66 | TACGATGTCC | 1.02
67 | TACGCATT | 1.47
68 | TACGCCTAGC | 1.1
69 | TACGCGGTA | 1.83
70 | TACGGACTTG | 1.06
71 | TACGGAGTGC | 1.15
72 | TACGGATTGG | 0.985
73 | TACGGGTATT | 1.04
74 | TACGGGTCCG | 1
75 | TACGGTAAGG | 1.09

Row | Sequence | switch fluorescence ratio
76 | TACGGTACTT | 1.54
77 | TACGGTCGTC | 1.01
78 | TACGGTGGAG | 1.01
79 | TACGGTTGGG | 0.997
80 | TACGTAAAA | 1.11
81 | TACGTCAGCT | 1.12
82 | TACGTCAGGG | 1.13
83 | TACGTCTGCG | 0.995
84 | TACGTCTGTT | 1.02
85 | TACGTGAGAG | 1.07
86 | TACGTGCAAA | 1.09
87 | TACGTTAGCG | 1.02
88 | TACGTTAGTG | 1
89 | TACGTTCAGC | 1.06
90 | TACGTTCCGG | 1.07
91 | TACGTTCTAG | 0.969
92 | TACTAAAAGT | 1.15
93 | TACTAAATAG | 1.03
94 | TACTAATCTC | 1.08
95 | TACTAGCCCG | 1.02
96 | TACTAGTTCC | 1.08
97 | TACTATAGTA | 0.997
98 | TACTATATTA | 1.06
99 | TACTATTCG | 0.945
100 | TACTATTGCC | 1.02

Source: the supplement of paper PMC10126150
